Data taken from PubChem BioAssay AID686978 (National Center for Advancing Translational Sciences (NCATS), 2013).
Where “and” joins values, the source holds several entries; their conditions need not be identical. Equal entries are not always repeated. The campaign covered roughly 420,000 compounds. About 64,000 (15%) were called active. Inconclusive means that the source gave no clear call. Such entries were picked first, then a sample of the others. Calls follow the shape of the dose curve; as a rule, active = well fitted inhibition curve with a large enough effect; inconclusive = small, poorly fitted or top-dose-only effect; inactive = flat fitted curve, though single readings scatter. No potency is given beside an inconclusive call; the fits are too rough.

Experiment: qHTS for Inhibitors of human tyrosyl-DNA phosphodiesterase 1 (TDP1): qHTS in cells in absence of CPT; also: nearly all actives have a fitted effect of over 55% in size
Details: DT40 Tdp1-/- hTDP1 cells, no CPT, ATP luminescence, 48 h; activity change, negative = growth inhibition: at 46.2 µM (top of the series) unless noted
Outline: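 Camptothecin absent (DMSO only). Human TDP1-complemented DT40 knockout cells, 400 cells/well, 37 °C for minimum 48 hr; ATP measured via CellTiter-Glo, 30 min dark incubation, luminescence.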
% is scaled to controls: 0 for no effect and ±100 for the full control effect; potency is read from the fitted curve at half-maximal effect; tags tell the direction and shape of the fitted curve.

Row | Structure (SMILES) | Potency | activity change, negative = growth inhibition
1 | COC(=O)C[C@@H]1C[C@@H]2c3cc(NC(=O)Cc4ccncc4)ccc3O[C@@H]2[C@@H](CO)O1 | inactive | 
2 | CC(C)Oc1ccc(C(=O)N2CCN(c3nc4c(F)cc(F)cc4s3)CC2)cc1 | inconclusive [inhibitor, single point] | 
3 | CCOC(=O)N1CCN(C(=O)COc2ccc3c(c2)C(=O)CC(C)(C)O3)CC1 | inactive | 
4 | COc1ccc(NS(=O)(=O)c2ccc(N/N=C/c3ccc(N4CCOCC4)cc3)c([N+](=O)[O-])c2)cc1 | inconclusive [inhibitor, partial curve] | 
5 | CN1CCN(C(=S)NC(=O)c2ccc(C(C)(C)C)cc2)CC1 | inconclusive [inhibitor, partial curve, poor fit] | 
6 | CCOc1ccc(N(C(C)C(=O)Nc2ccc(OC)cc2)S(C)(=O)=O)cc1 (stereo unspecified) | inactive | 
7 | O=C(CSc1ncc2c(n1)-c1cc(Cl)ccc1N(Cc1ccccc1)S2(=O)=O)Nc1ccc(F)cc1F | inconclusive [inhibitor, single point] | 
8 | O=S(=O)(c1cccc(F)c1)N1CCN(C(=S)NCC2CCCO2)CC1 (stereo unspecified) | inactive | 
9 | COc1ccc(NC(=S)N/C(=N/S(=O)(=O)c2ccc(C)cc2)c2ccccc2)cc1 | inactive | 
10 | COc1ccc(/C=C(/NC(=O)c2ccc(Br)cc2)C(=O)N2CCOCC2)cc1 | inactive | 
11 | O=C(COc1ccc(Br)cc1)NNC(=S)NCc1ccccc1 | inconclusive [inhibitor, single point] | 
12 | CCOCCn1ccc2c(OCC(=O)NCc3ccc(F)cc3)cccc2c1=O | inactive | 
13 | Cc1nc(N2CCN(c3ccccn3)CC2)c2c(C)c(C(=O)Nc3ccc(Cl)cc3)sc2n1 | inconclusive [inhibitor, partial curve, poor fit] | 
14 | CCN1c2ccccc2-n2cccc2C12CCN(C(=O)Nc1ccccc1Br)CC2 | inconclusive [inhibitor, single point] | 
15 | CC(C)n1nnc(-c2ccc(OCc3ccccc3F)cc2)n1 | inactive | 
16 | CC(=O)N1CCc2cc(S(=O)(=O)NC(C)c3ccccc3)ccc21 (stereo unspecified) |  | inconclusive: -31.3% [inhibitor]
17 | COc1ccc(CNC(=O)C[C@H]2C[C@H](C(=O)N3CCOCC3)[C@@]3(CCC4CCCC4)c4[nH]c5cc(CCC(=O)N(C)C)ccc5c4CCN3C2=O)cc1OC | inconclusive [inhibitor, single point] | 
18 | CCCCn1c(N)c(N(C)C(=O)c2cc3c(F)cccc3s2)c(=O)[nH]c1=O | inactive | 
19 | C(=C\c1ccccc1)/CN1CCN(C(c2cc3ccccc3o2)c2nnnn2-c2ccc3c(c2)OCCO3)CC1 (stereo unspecified) | active: 14.6 µM | 
20 | CC1CCCN(c2ncnc3c2cnn3-c2ccc(F)cc2)C1 (stereo unspecified) | inconclusive [inhibitor, single point] | 
21 | Cc1ccc(CCC(=O)Nc2ccc(Br)cc2)o1 | inconclusive [inhibitor, single point] | 
22 | c1ccc(NC2=NCCN2CC2CCC2)cc1 | inactive | 
23 | C/C(=N\NC(=O)CNC(=O)c1ccccc1Br)c1ccco1 | inactive | 
24 | CCCCn1cc(S(=O)(=O)c2ccccc2)c(=O)c2cc(F)c(N3CCN(CCC)CC3)cc21 | active: 20.6 µM | 

Row | Structure (SMILES) | Potency | activity change, negative = growth inhibition
25 | Cc1ccc(Sc2ncccc2C(=O)O)cc1 | inactive | 
26 | O=C(NCCc1csc(-c2ccccc2)n1)c1ccccc1F | inconclusive [inhibitor, partial curve, poor fit] | 
27 | Cc1cc(C)c2nc(NC(=O)c3ccc4c(=O)n5c(nc4c3)CCCCC5)sc2c1 | inconclusive [inhibitor, single point] | 
28 | COc1ccc(C2CC(=O)N(Cc3ccccc3C)c3c2c(C)nn3-c2nc(C)cc(C)n2)c(OC)c1 (stereo unspecified) | inconclusive [inhibitor, single point] | 
29 | CC(=O)Nc1cccc(NC(=O)CSc2ncc(-c3ccc(Cl)cc3)n2Cc2ccco2)c1 | active: 20.6 µM | 
30 | Cc1ccccc1OCC(O)Cn1c(=N)n(Cc2ccccc2)c2ccccc21 (stereo unspecified) | active: 5.17 µM | 
31 | C[C@]12C(=O)N(c3cccc(F)c3)C(=O)N1[C@@H]1c3ccccc3OC[C@@H]1[C@H]2c1ccccc1 | active: 20.6 µM | 
32 | NC(=O)[C@H]1CC2(CC(c3cccc(NC(=O)CC(c4ccccc4)c4ccccc4)c3)=NO2)CN1C(=O)C(c1ccccc1)c1ccccc1 (stereo partly specified) | inconclusive [inhibitor, single point] | 
33 | COC(=O)C1=C(C)NC(C)=C(C(=O)OC)C1c1ccc(-c2cccc([N+](=O)[O-])c2)o1 | inconclusive [inhibitor, single point] | 
34 | COc1ccc(NC(=O)CSC2=Nc3ccccc3C3=NC(CC(=O)NCc4ccccc4OC)C(=O)N23)cc1Cl (stereo unspecified) | inconclusive [inhibitor, single point] | 
35 | CCOC(=O)N1CCN(c2nnc(-c3ccc(C)cc3)c3ccccc23)CC1 | inconclusive [inhibitor, single point] | 
36 | O=C(Nc1nccs1)c1ccc(-c2ccc(F)cc2)o1 | inconclusive [inhibitor, single point] | 
37 | COc1cc(OC)c(OC)cc1CN1CCSCC1 | inactive | 
38 | CCCCC1=CC2=C(c3ccco3)C(=O)C(C)(OC(=O)c3ccc(OC)cc3)C(=O)C2=CN1CCc1ccccn1 (stereo unspecified) | active: 9.2 µM | 
39 | O=C1C2C(c3ccccc3)(C(=O)N1c1ccc(Cl)cc1)C2(c1ccccc1)c1ccccc1 (stereo unspecified) | inconclusive [inhibitor, partial curve, poor fit] | 
40 | CCc1sc(Nc2cccc(C)c2)nc1-c1cc2cccc(OC)c2oc1=O | active: 20.6 µM | 
41 | COc1ccc(CCN(C(=O)c2snc(C(N)=O)c2N)C(C(=O)NCC2CCCO2)c2ccc(F)cc2)cc1OC (stereo unspecified) | active: 29.1 µM | 
42 | COc1ccc(/C=N/NC(=O)c2ccc3nc[nH]c3c2)c(OC)c1 |  | inconclusive: -6.35% [inhibitor]
43 | CC[N+](CC)(CC#Cc1ccccc1)CC(=O)c1ccc(Cl)cc1 | active: 5.8 µM | 
44 | Nc1nn(-c2ccccc2)c(N)c1N=Nc1ccccc1 | active: 4.61 µM | 
45 | Cc1ccc(S(=O)(=O)N2CCc3cc(C(=O)N(C)Cc4ccccc4)ccc32)cc1 | active: 13 µM | 
46 | CS(=O)(=O)N1CCN(c2ccccc2NC(=O)c2ccc(-c3ccc(Cl)cc3Cl)o2)CC1 | inconclusive [inhibitor, single point] | 
47 | O=C(COC(=O)/C=C/c1ccc(S(=O)(=O)N2CCOCC2)cc1)NCc1ccc2c(c1)OCO2 | inconclusive [inhibitor, partial curve] | 
48 | CC(C)(C)c1ccc(OCCNCc2ccccc2)cc1 | inconclusive [inhibitor, single point] | 

Row | Structure (SMILES) | Potency | activity change, negative = growth inhibition
49 | COC(=O)c1ccccc1NC(=S)NC(=O)COc1ccccc1 |  | inconclusive: -31.2% [inhibitor]
50 | COc1cc2cc(/C=C/C(=O)c3ccco3)c(Cl)nc2cc1OC | active: 4.61 µM | 
51 | O=C(O)CC(NNC(=O)c1ccccc1)C(=O)Nc1ccc([N+](=O)[O-])cc1 (stereo unspecified) | inactive | 
52 | COc1ccc(OC)c2sc(N3CCN(c4ccccc4)CC3)nc12 | inconclusive [inhibitor, partial curve] | 
53 | COCC(C)n1c(-c2ccc3c(c2)NC(=O)CO3)csc1=Nc1ccc(OC(F)F)cc1 (stereo unspecified) | active: 20.6 µM and active: 6.51 µM | 
54 | O=C(CCc1ccc(O)cc1)N/N=C/c1coc2ccccc2c1=O | inconclusive [inhibitor, partial curve, poor fit] | 
55 | Cc1cc(NS(=O)(=O)c2ccc(NC(=O)C(C)N3C(=O)c4ccccc4C3=O)cc2)nc(C)n1 (stereo unspecified) | inactive | 
56 | Fc1ccc(CN2CCCN(C(=S)Nc3ccc(F)cc3)CC2)cc1 | inactive | 
57 | O=C(CCC(=O)Nc1cccc([N+](=O)[O-])c1)NCc1ccccc1 | inactive | 
58 | CCNc1oc(COc2cccc(C)c2)nc1C#N | inactive | 
59 | Cc1ccc2c(C)c(C(=O)N(Cc3ccc(F)cc3)C3CCS(=O)(=O)C3)oc2c1 (stereo unspecified) | inconclusive [inhibitor, single point] | 
60 | Cc1ccc(NS(=O)(=O)c2cc3c4c(cccc4c2)C(=O)NC3=O)cc1C | active: 8.2 µM | 
61 | Cc1c(CCOC(=O)c2ccccc2)sc[n+]1CC(=O)c1ccc(Br)cc1 | inconclusive [inhibitor, single point] | 
62 | COc1ccc(NS(=O)(=O)c2cccc(C(=O)NNC(=O)c3ccc(Br)o3)c2)cc1 | active: 5.8 µM | 
63 | COc1cccc(-n2c(=O)c3c(C)c(C(=O)N(C)C)sc3n(Cc3cccc(C)c3)c2=O)c1 | inactive | 
64 | CCOC(=O)Cc1nn(Cc2nc(-c3ccc(C)cc3)cs2)c(=O)c2ccccc12 | inconclusive [inhibitor, single point] | 
65 | CC(C)(O[C@@H]1O[C@H](CO)[C@@H](O)[C@H](O)[C@H]1O)[C@@H]1CC=C(C(=O)O)CC1 | inactive | 
66 | COc1cc(O)c(C(CCN2CCCC2)c2cc(OC)c(OC)c(OC)c2)c(OC)c1 (stereo unspecified) | inconclusive [inhibitor, single point] | 
67 | Cc1ccccc1OCC(=O)N/N=C1\CC(=O)CC(C)(C)C1 | inactive | 
68 | COc1cc(C(=O)OCC(=O)N2CCN(C(C)=O)CC2)ccc1OCC(C)C | inactive | 
69 | COCCN(C(=O)Nc1ccccc1)c1ccccc1 |  | inconclusive: -32.6% [inhibitor]
70 | Cc1[nH]n(C2=NCCS2)c(=O)c1N=Nc1ccccc1 | inconclusive [inhibitor, single point] | 
71 | Cc1cccnc1NC(=O)c1ccc([N+](=O)[O-])o1 | inconclusive [inhibitor, single point] | 
